# From PubChem BioAssay AID445 (National Center for Advancing Translational Sciences (NCATS), 2006)
# Among all 110,000 compounds or so, about 40 (0.04%) were called active. Inconclusive means that the source gave no clear call. Such entries were picked first, then a sample of the others. The call rests on the fitted dose curve; in most records, active means well fitted curve in the direction sought with a large enough effect in the signal ratio (not every such curve was filed as active); inconclusive means small, poorly fitted or top-dose-only effect, or a change in a side signal; inactive means flat fitted curve, though single readings scatter; the % refers to the signal ratio. Potencies of inconclusive entries are doubtful fits and often do not repeat.
# Experiment: IkB Signaling;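 on IkBa stabilization activation: 0% = basal untreated cells and 100% = reference inhibitor full response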
# Details: ABC-DLBCL IkBa-CBG/CBR dual luciferase ratio (green luciferase fused to IkBa over red control in OCI-Ly3 lymphoma cells), 4 h; IkBa stabilization activation: at 57.1 µM (top of the series), scaled: untreated 0%, proteasome inhibitor 100% unless noted
# Procedure, shortened: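 In this assay, an IκBα–CBG68 fusion accumulates when IKK-driven degradation is blocked; native CBR normalizes for cell number. OCI-Ly3 cells were treated 4 h with compound and doxycycline, then green and red light read after Chroma-Glo addition.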
# Potency means the concentration at half of the fitted maximal effect.
SMILES,IkBa stabilization activation,Potency
COc1ccc(Cl)c2sc(NC(=O)c3ccc(S(=O)(=O)N4CCOCC4)cc3)nc12,inconclusive: -0.655% [signal inhibitor],–
Cc1c(-c2nc(-c3ccccc3)no2)nnn1-c1ccc(F)c(Cl)c1,inconclusive: 8.98% [signal inhibitor],–
O=S(=O)(Nc1ccc(-c2cn3ccsc3n2)cc1)c1ccc2c(c1)OCCO2,inconclusive: 2.29% [signal inhibitor],–
COc1ccc(NC(=O)c2c(NCc3cccs3)sc3c2CCC(C)C3)c(OC)c1 (stereo unspecified),inconclusive: -6.25% [signal inhibitor],–
O=S(=O)(/N=C(/Nc1cc(N2CCOCC2)ncn1)c1ccc(F)cc1)c1ccccc1,inactive,–
O=C(CSc1nnc(-c2ccccc2Cl)o1)N1CCCc2ccccc21,inconclusive: 6.83% [signal inhibitor],–
COc1ccc(-c2noc(CN(C(=O)c3ccc(OC(C)=O)cc3)C(C)C)n2)cc1OC,inactive,–
Cc1c(C(=O)N(Cc2ccccc2F)C2CCS(=O)(=O)C2)oc2ccccc12 (stereo unspecified),inconclusive: -0.93% [signal inhibitor],–
O=C(NCCc1ccccc1)c1cnn2c(C(F)F)cc(C3CC3)nc12,inactive,–
Cc1nn(C)c2c1c(C(F)(F)F)cc(=O)n2C(C)C(=O)Nc1ccccc1F (stereo unspecified),inconclusive: 1.41% [signal inhibitor],–
CCOc1ccc(C(=O)c2cn(CC(=O)Nc3ccc(Cl)cc3)c3cc4c(cc3c2=O)OCO4)cc1,inconclusive: 4.42% [signal inhibitor],–
CC(=O)N1CCc2cc(Br)cc(S(=O)(=O)CCC(=O)N3CCN(c4ccc(F)cc4)CC3)c21,inactive,–
Cc1ccc(N=Nc2c(O)c3ccccc3[nH]c2=O)c(S(=O)(=O)N(C)C)c1,"inactive: -0.136% [at 11.4 µM, scaled: untreated 0%, proteasome inhibitor 100%]",–
CCS(=O)(=O)c1ncc(N(Cc2ccccc2)Cc2ccco2)c(C(=O)Nc2cccc(Cl)c2C)n1,inconclusive: -1.85% [signal inhibitor],–
COc1ccccc1C(=O)Nc1ccc2nc(SCC(=O)N(C)c3ccccc3)sc2c1,inconclusive: 1.62% [signal inhibitor],–
O=C(CN1C(=O)C2(SCC(=O)N2c2cccc(Cl)c2)c2ccccc21)NCCc1ccccc1 (stereo unspecified),inactive,–
CCCCCC(=O)Nc1ccccc1N1CCN(c2ccccc2)CC1,inconclusive: 2.5% [signal inhibitor],–
CCOc1ccc(CNC(=O)c2ccc3c(c2)c(C)c(C)n3Cc2ccccc2)cc1OC,inconclusive: 0.456% [signal inhibitor],–
COc1ccc(-c2nc3cnc(N(C)C)nc3n(CCc3ccccc3)c2=O)cc1,"inactive: 0.0146% [at 11.4 µM, scaled: untreated 0%, proteasome inhibitor 100%]",–
O=C(COc1ccc(Cl)cc1)NCc1nnc(SCC(=O)Nc2ccc3c(c2)OCCO3)o1,inconclusive: 12.6% [signal inhibitor],–
CCc1ccc(N2CC(C(=O)OCC(=O)Nc3cc(C)on3)CC2=O)cc1 (stereo unspecified),inactive,–
Cc1ccc(C)c(Cn2c3ccccc3c3cnn(CC(=O)NC(C)CCc4ccccc4)c(=O)c32)c1 (stereo unspecified),inactive,–

SMILES,IkBa stabilization activation,Potency
COC(=O)c1ccc(Cl)cc1NC(=O)Nc1nnc(N2CCCC2)s1,inconclusive: -0.531% [signal inhibitor],–
Fc1ccc(C(c2nnc(-c3ccccc3)o2)N2CCN(c3cccc(Cl)c3)CC2)cc1 (stereo unspecified),inconclusive: 4.24% [signal inhibitor],–
COC(=O)c1ccc(NC(=O)c2cccc(OC)c2)cc1,–,"inconclusive: 31.6 µM [signal inhibitor, partial curve]"
CCOC(=O)C(CC)n1nnc2sc(-c3ccccc3)cc2c1=O (stereo unspecified),inconclusive: -1.26% [signal inhibitor],–
Cc1ccc(Nc2c(-c3c[nH]c4ccccc34)nc3ccccn23)cc1,–,"inconclusive: 0.126 µM [signal inhibitor, partial curve]"
CC(C)Oc1ccccc1-c1nc(SCC(=O)c2ccc(F)cc2)n[nH]1,inconclusive: 1.81% [signal inhibitor],–
COc1cccc(Nc2ncc3nc(-c4ccc(F)cc4)c(=O)n(CCC#N)c3n2)c1,"inactive: -2.35% [at 11.4 µM, scaled: untreated 0%, proteasome inhibitor 100%]",–
COc1ccc(OC)c(CCNC(=O)c2cc3c(s2)-c2c(C)cccc2OC3)c1,inconclusive: 2.65% [signal inhibitor],–
CC(C)(C)C(=O)Nc1ccc(-c2nc3ccc(NC(=O)C(C)(C)C)cc3[nH]2)cc1,inactive,–
CCC(=O)N1CCc2cc(CNS(=O)(=O)c3cc(OC)ccc3OC)ccc21,inactive,–
O=C(c1ccc(F)cc1)c1cn(Cc2ccccc2F)c2cc3c(cc2c1=O)OCCO3,inconclusive: 1.83% [signal inhibitor],–
Cc1cccc(-c2nc(CN3CCCC(C(=O)N4CCN(c5cc(Cl)ccc5C)CC4)C3)c(C)o2)c1 (stereo unspecified),inconclusive: -4.48% [signal inhibitor],–
COc1ccc(-c2nc3cnc(N(C)C)nc3n(CCC#N)c2=O)cc1,"inactive: -2.25% [at 11.4 µM, scaled: untreated 0%, proteasome inhibitor 100%]",–
COC(=O)CSc1ncc2c(n1)-c1ccccc1N(Cc1ccc(Cl)cc1)S2(=O)=O,inconclusive: 1.47% [signal inhibitor],–
CCOc1ccc(NC(=O)CSc2nnc(-c3ccncc3)n2CC2CCCO2)cc1 (stereo unspecified),inactive,–
COc1ccc(NC(=O)c2c(C)oc3ccc(O)c(CN4CCC(C)CC4)c23)cc1Cl,inconclusive: -1.7% [signal inhibitor],–
Cn1ncc2c(Nc3cc(C(F)(F)F)ccc3Cl)ncnc21,inactive,–
CC(NC(=O)c1ccc2c(c1)N(Cc1ccc(Cl)cc1)C(=O)CS2)c1ccccc1 (stereo unspecified),inconclusive: 7.23% [signal inhibitor],–
CC(=O)Oc1ccc(N2C(=O)C3C(C2=O)C2(C)C=CC3(C)O2)cc1 (stereo unspecified),inconclusive: 5.04% [signal inhibitor],–
CCN(c1cccc(C)c1)S(=O)(=O)c1cc(Br)cc2c1N(C(C)=O)C(C)C2 (stereo unspecified),inconclusive: -2.78% [signal inhibitor],–
COc1ccc2c(c1)c1c(c(=O)n(-c3ccccc3C)c(=O)n1Cc1cccc(C(F)(F)F)c1)n2C,inactive,–
CC(C)OC(=O)c1ccc(Cn2nnc3sc4c(c3c2=O)CCCC4)cc1,inconclusive: 2.11% [signal inhibitor],–

SMILES,IkBa stabilization activation,Potency
Cc1ccc(OCc2nc(-c3ccccc3)no2)c(C)c1,inactive,–
COc1cc(Br)cc(/C=N/c2ncn[nH]2)c1O,inconclusive: -3.9% [signal inhibitor],–
CC(C)(C)C1CCc2c(sc(NC(=O)c3cc4ccccc4c(=O)o3)c2C(N)=O)C1 (stereo unspecified),inconclusive: 6.71% [signal inhibitor],–
COc1ccccc1NC(=O)CN1CCN(CC(=O)Nc2ccc(Cl)c(C(F)(F)F)c2)CC1,–,"inconclusive: 20 µM [signal inhibitor, partial curve]"
Cc1ccc(-c2nc(C)c(CCNC(=O)c3cccs3)s2)cc1,inconclusive: -0.642% [signal inhibitor],–
Clc1ccccc1C1=Nn2c(nnc2-c2ccncc2)SC1,inconclusive: 0.233% [signal inhibitor],–
COc1ccc(CNc2ncnc3ccc(-c4ccc(N(C)C)cc4)cc23)c(OC)c1,"inactive: 5.17% [at 11.4 µM, scaled: untreated 0%, proteasome inhibitor 100%]",–
O=C(CSc1nnc(-c2ccco2)n1Cc1ccccc1)c1ccc(F)cc1,inconclusive: 2.26% [signal inhibitor],–
CC1CCN(c2nn3c(=O)c(C(=O)NCCCOC(C)C)cnc3s2)CC1,inactive,–
CC(=O)c1ccc(N2CCN(C(=O)c3cc4c(-c5ccccc5F)nn(C)c4s3)CC2)cc1,inconclusive: 6.26% [signal inhibitor],–
c1ccc(CNc2nc3ccccc3[nH]2)cc1,inactive,–
O=C(c1cc2nc(-c3ccccc3)cc(-c3ccccc3)n2n1)N1CCN(C(=O)c2ccco2)CC1,inconclusive: 2.11% [signal inhibitor],–
CCc1cccc(NC(=O)c2cc3c(=O)n(Cc4ccccc4)ccc3nc2C)c1,inconclusive: 2.94% [signal inhibitor],–
CC(C)c1ccc(NC(=O)C2CCN(C(=O)c3ccc(F)cc3)CC2)cc1,inconclusive: 5.02% [signal inhibitor],–
Cc1ccc2nc(-c3cccs3)c(Nc3c(C)cccc3C)n2c1,–,inconclusive: 10 µM [signal inhibitor]
N[C@H](Cc1ccc(F)cc1)C(=O)O,inactive,–
Cc1c(C(=O)NCc2ccc(F)cc2)oc2ccc(S(=O)(=O)N3CCCCC3)cc12,inconclusive: -2.34% [signal inhibitor],–
COc1ccc(NC(=O)[C@H]2O[C@@H]3OC(C)(C)O[C@@H]3[C@H]3OC(C)(C)O[C@H]32)c(OC)c1,inconclusive: -1.08% [signal inhibitor],–
COc1ccc(CCNc2oc(Cc3ccccc3)nc2C#N)cc1OC,inconclusive: -0.27% [signal inhibitor],–
CCC(=O)N1CCCc2cc(S(=O)(=O)N3CCN(c4ncccn4)CC3)ccc21,inactive,–
CC1(C)N=C(N)N=C(N)N1c1cccc(CSc2ccccc2)c1,"inactive: 1.49% [at 11.4 µM, scaled: untreated 0%, proteasome inhibitor 100%]",–
c1ccc2c(c1)oc1c(Nc3ccc(CN4CCOCC4)cc3)ncnc12,inconclusive: -5.81% [signal inhibitor],–
